PubChem BioAssay AID651820 (National Center for Advancing Translational Sciences (NCATS), 2012)
Values joined by “and” are separate entries in the source; they are usually repeats but may differ in a detail not shown here. Identical values can stand only once. Hit rate of the full screen: of about 340,000 compounds, about 12,000 (3.5%) were called active. Inconclusive results, whose numbers are uncertain, are shown with a selection of clear calls. Calls follow the shape of the dose curve; as a rule, active = well fitted inhibition curve with a large enough effect; inconclusive = small, poorly fitted or top-dose-only effect, or another doubt; inactive = no such curve, though single readings can be large or run the other way. Potencies of inconclusive entries are doubtful fits and often do not repeat.

Assay: qHTS Assay for Inhibitors of Hepatitis C Virus (HCV)
Settings: Huh7.5.1 HCVcc-Cre (HCVcc is cell-culture hepatitis C virus) infection, luciferase reporter, 44 h; activity change, negative = inhibition: at 41.8 µM (top of the series) unless noted
Method in brief: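 Reporter virus HCVcc-Cre (~0.5 moi) infects cells exposed to compound; seeding density 1,000 cells/well with 4 h settling beforehand. Luminescence, 15 sec read, taken 44 h post-infection following a 15 min RT substrate incubation.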
% is scaled to controls: 0 for no effect and ±100 for the full control effect; potency is read from the fitted curve at half-maximal effect; tags tell the direction and shape of the fitted curve.

Row | SMILES | Potency | activity change, negative = inhibition
1 | O=C(c1ncc[nH]1)c1ccco1 | inconclusive: 5.62 µM [inhibitor, single point] | 
2 | COc1ccc(C2CC(c3ccccc3)n3nc(NC(=O)c4cccs4)nc3N2)cc1 (stereo not given) | inconclusive: 31.6 µM [inhibitor, single point] | 
3 | CCCOc1ccc(C(=O)C(CCC(CNCC)C(=O)c2ccc(OCCC)cc2)CNCC)cc1 (stereo not given) | active: 5.01 µM | 
4 | CC1(C)Oc2ccc3ccc(=O)oc3c2/C(=C/Nc2cccc(O)c2)C1=O | inconclusive: 11.2 µM [inhibitor, partial curve] | 
5 | Cc1ccc(NC(=O)C2COc3ccccc3O2)cc1C (stereo not given) |  | inactive: 9.88%
6 | COc1cccc2c3cccc(OC)c3c3[nH]cnc3c12 | inconclusive: 8.91 µM [inhibitor, partial curve] | 
7 | CC(C)c1ccc(/C=C2\C(=O)N(CCN3CCOCC3)C(=S)N2C)cc1 | active: 10 µM | 
8 | COc1ccc(OCc2nnc(SCC(=O)NC3CCCCC3)o2)cc1 |  | inactive: 5.08%
9 | Cc1ccc(NC(=O)c2cn(CCC#N)nc2-c2cccs2)c([N+](=O)[O-])c1 | inconclusive: 31.6 µM [inhibitor, single point] | 
10 | O=C1C=C(c2cccc(Cl)c2)C[C@@H](c2ccc3c(c2)OCO3)C1 | inconclusive: 31.6 µM [inhibitor, single point] | 
11 | CC(C)(C)Nc1nc(N2CCCC2)nc(N2CCCC2)n1 | inconclusive: 3.55 µM [inhibitor, full curve, poor fit] | 
12 | COc1ccc(C(=O)C2CCCN(Cc3cc(Cl)ccc3O)C2)c(OC)c1 (stereo not given) | active: 11.2 µM | 
13 | O=C(c1ccccc1-c1nc(-c2ccc(Cl)cc2)no1)N1CCCC1 | inconclusive: 7.08 µM [inhibitor, partial curve] | 
14 | COc1ccc(NC(=O)C(NCC(C)C)c2ccccc2)cc1Cl (stereo not given) | inconclusive: 0.562 µM [inhibitor, partial curve, poor fit] | 
15 | CN1C(=O)/C(=C/c2ccccc2F)Sc2ccc(C(=O)NCC3CCCO3)cc21 (stereo not given) |  | inactive: -12.5%
16 | CC1CCC(C(C)C)C(OCC(O)CN2CCN(Cc3ccccc3)CC2)C1 (stereo not given) | inconclusive: 31.6 µM [inhibitor, single point] | 
17 | CCCOc1ccc(/C=C2\SC(=S)N(CC3CCCO3)C2=O)cc1 (stereo not given) | inconclusive: 31.6 µM [inhibitor, single point] | 
18 | COc1ccc(/C=C/C(=O)Nc2ccc3nc4n(c(=O)c3c2)CCCC4)cc1 | inconclusive: 8.91 µM [inhibitor, partial curve] | 
19 | O=C1CC(CC(=O)N/N=C/c2ccccc2[N+](=O)[O-])=NN1 |  | inactive: 23.3%
20 | Cc1c(C(C)C)c(=O)n(-c2ccc(S(=O)(=O)NC3CCCCC3)cc2)n1C | active: 5.01 µM | 
21 | O=[N+]([O-])c1ccc(Sc2cc[n+]([O-])c3ccccc23)c([N+](=O)[O-])c1 | inconclusive: 31.6 µM [inhibitor, single point] | 
22 | O=C(O)c1ccc(/C=C2\SC(=Nc3ccccc3)N(c3ccccc3)C2=O)cc1 |  | inactive: 10.7%
23 | CCOC(=O)COc1ccc2c(c1)c(C(C)=O)c(C)n2-c1ccccc1 |  | inactive: 27.8%
24 | CCOc1cccc(/C=N/Nc2ccc(S(=O)(=O)N(CC)CC)cn2)c1O | inconclusive: 3.55 µM [inhibitor, full curve] | 

Row | SMILES | Potency | activity change, negative = inhibition
25 | COc1cc(NC(=O)c2ccccc2Cl)c2ncccc2c1 | active: 10 µM | 
26 | COCCn1ccc2c(OCC(=O)Nc3cccc(NC(C)=O)c3)cccc2c1=O |  | inactive: 1.86%
27 | CCOC(=O)c1nc(N/N=C/c2ccccc2)sc1Br | inconclusive: 12.6 µM [inhibitor, partial curve] | 
28 | O=C1COc2ccc(C(=O)CSc3nc4ccccc4c(=O)n3-c3ccc(Cl)c(Cl)c3)cc2N1 |  | inactive: -8.1%
29 | Cc1cccn2c(=O)c(C=NCc3ccco3)c(Nc3ccc(SC(F)F)cc3)nc12 | inconclusive: 8.91 µM [inhibitor, partial curve] | 
30 | N#CC1=C(N)Oc2n[nH]c(-c3cccs3)c2C1c1ccncc1 (stereo not given) |  | inactive: -15.1%
31 | CCOc1ccccc1N(CC(=O)NCCc1ccccc1)C(=O)CCC(=O)Nc1ccccn1 |  | inactive: -10.2%
32 | Cc1ccc(C(=O)NNC(=O)c2cccc(S(=O)(=O)N3CCOCC3)c2)cc1 |  | inactive: 15.1%
33 | COc1cccc(NC(=S)N(CCCN2CCCC2)Cc2ccco2)c1 | inconclusive: 31.6 µM [inhibitor, single point] | 
34 | CN(C)c1nc(OCCNC(=O)COc2ccc(Cl)cc2Cl)nc(N2CCCCC2)n1 | inconclusive: 22.4 µM [inhibitor, single point] and inconclusive: 10 µM [inhibitor, partial curve] | 
35 | Cc1cc(C(=O)CSc2nc3ccccc3o2)c(C)n1CC1CCCO1 (stereo not given) | inconclusive: 3.98 µM [inhibitor, full curve] | 
36 | COc1ccc(CNC(=O)c2ccc(S(=O)(=O)N3CC(C)CC(C)C3)cc2)cc1OC (stereo not given) | inconclusive: 10 µM [inhibitor, partial curve] | 
37 | Clc1ccc(CNc2ncnc3[nH]ncc23)c(Cl)c1 | inconclusive: 31.6 µM [inhibitor, single point] | 
38 | COc1ccc(-c2ccnc(-c3ccncc3)n2)cc1 | inconclusive: 35.5 µM [inhibitor, partial curve] | 
39 | Cc1nc(N2CCOCC2)c2cc(-c3ccccc3)sc2n1 | inconclusive: 11.2 µM [inhibitor, partial curve] | 
40 | O=C(CNc1cc(S(=O)(=O)N2CCOCC2)ccc1N1CCCC1)N1CCc2ccccc21 | inconclusive: 31.6 µM [inhibitor, single point] | 
41 | CC(=O)N1N=C(c2ccccc2O)CC1c1cccs1 (stereo not given) |  | inactive: 3.55%
42 | O=c1nccc(N/N=C/c2cccc(O)c2)[nH]1 |  | inactive: 15.9%
43 | Cc1ccc(S(=O)(=O)N2CCN(c3ccc([N+](=O)[O-])c(NCCN4CCOCC4)c3)CC2)cc1 |  | inactive: -26.8%
44 | Cc1ccc(C(C)C)cc1OCCCCN1CCCC1 | inconclusive: 10 µM [inhibitor, partial curve] | 
45 | CCN(C(=O)COC(=O)/C(=C/c1ccccc1)NC(C)=O)c1c(N)n(Cc2ccccc2)c(=O)[nH]c1=O |  | inactive: 11.5%
46 | COCCCNC(=O)c1ccc2c(=O)n(Cc3ccc4c(c3)OCO4)c(=S)[nH]c2c1 | inconclusive: 31.6 µM [inhibitor, single point] | 
47 | COc1ccc(-c2csc(NC(=O)CS(=O)(=O)c3ccccc3)n2)cc1 | inconclusive: 22.4 µM [inhibitor, single point] | 
48 | Cc1ccc(C(C(=O)NC(C)(C)C)N(Cc2cccs2)C(=O)c2csnn2)cc1 (stereo not given) | inconclusive: 22.4 µM [inhibitor, single point] | 

Row | SMILES | Potency | activity change, negative = inhibition
49 | Cc1c(S(=O)(=O)N2CCN(c3cccc(C(F)(F)F)c3)CC2)c(=O)n(C)c(=O)n1C | inconclusive: 11.2 µM [inhibitor, single point] | 
50 | O=C(CCNC(=O)c1ccc(Br)cc1)NCc1ccco1 |  | inconclusive: -33.6% [inhibitor]
51 | CCCn1c(CN2CCCCC2C)nc2c1c(=O)n(C)c(=O)n2C (stereo not given) |  | inactive: 14.3%
52 | COc1ccc(C(=O)C2CCN(CC(=O)NCc3ccccc3)CC2)cc1 | inconclusive: 14.1 µM [inhibitor, single point] | 
53 | O=C(NCCc1ccccc1)C1CCN(C(=O)c2sccc2-n2cccc2)CC1 | inconclusive: 2.51 µM [inhibitor, full curve] | 
54 | CCn1nc(NC(=O)COC)c2cc3cccc(C)c3nc21 | inconclusive: 31.6 µM [inhibitor, single point] | 
55 | COc1ccc(C(=O)C2CCN(C(=S)Nc3ccc(F)cc3)CC2)cc1 | inconclusive: 31.6 µM [inhibitor, single point] | 
56 | CC(=O)N1CCOc2ccc(S(=O)(=O)NCC3CCC(C(=O)Nc4ccc(C)cn4)CC3)cc21 (stereo not given) | inconclusive: 7.08 µM [inhibitor, partial curve] | 
57 | COc1ccccc1NC(=O)c1nn(-c2ccccc2)ccc1=O | inconclusive: 22.4 µM [inhibitor, single point] | 
58 | COc1ccc(/C=N/N=C2/NC(=O)C(CC(=O)NC(C)C)S2)cc1 (stereo not given) |  | inactive: 0.578%
59 | O=C(/C=C/C=C/c1ccccc1)c1ccco1 |  | inactive: -19.8%
60 | COc1ccc2oc(C(=O)OCC(=O)N3CCN(c4ccccc4)CC3)c(C)c2c1 | inconclusive: 8.91 µM [inhibitor, partial curve] | 
61 | COc1ccc(OCc2cc(C(=O)NCC3CCCCO3)no2)c(Cl)c1 (stereo not given) |  | inactive: -13.8%
62 | Cc1cc(NC(=O)c2cccnc2Cl)ccc1NC(=O)c1cc2ccccc2o1 | inconclusive: 3.55 µM [inhibitor, full curve] | 
63 | COc1cccc(C2CC(c3ccc(Br)cc3)=NN2C(=O)c2ccncc2)c1OC (stereo not given) | inconclusive: 31.6 µM [inhibitor, single point] | 
64 | CC(C)Nc1nnc(SCC(=O)Nc2ccc3c(c2)C(=O)c2ccccc2C3=O)s1 | inconclusive: 31.6 µM [inhibitor, single point] | 
65 | CCOC(=O)C1=C(C)OC(N)=C(C(=O)OCC)[C@@]12C(=O)N(CC(N)=O)c1ccccc12 | inactive | 
66 | Cc1ccn2cc(C(=O)NC3CCN(Cc4ccccc4)CC3)nc2c1 | inconclusive: 31.6 µM [inhibitor, single point] | 
67 | COc1ccc(C(=O)Nc2cc(-c3ccccc3)nn2-c2ccccc2F)cc1 | inconclusive: 10 µM [inhibitor, partial curve] | 
68 | Cc1nn(-c2ccccc2)c(C)c1/C=N/NC(=O)CSc1nnc(SCc2cccc3ccccc23)s1 | active: 14.1 µM | 
69 | O=C(Nc1cc(C(=O)N2CCN(c3ccccc3)CC2)ccc1Cl)c1cccs1 |  | inactive: -40.6%
70 | COc1ccc(S(=O)(=O)N2CCN(CCc3ccccc3)CC2)cc1 | inconclusive: 31.6 µM [inhibitor, single point] | 
